Test results: US20130337564A1, “Treatment of Pluripotent Cells” (Janssen Biotech, Inc., priority 2012, published 2013)
Where “and” joins values, the source holds several entries; their conditions need not be identical. Equal values may be shown once. The name of at least one read-out is uncertain.

Legend:
Format in all cases: cell-based
[1] = system: cells expressing pluripotency markers derived from human embryonic stem cells; assay: MTS viability (toxicity) assay of cells expressing pluripotency markers; parameters: Raw data (duplicate), first replicate / Average: unit not given here; conditions: for % Control: viability of cells expressing pluripotency markers, relative to control
Description: Derivation and maintenance of cells expressing pluripotency makers was conducted as has been described in Example 2. Cells were grown in DMEM:F12 supplemented with 2% FCS (Invitrogen), 100 ng/ml Activin A, 20 ng/ml Wnt-3a, and 50 ng/ml IGF (R&D Biosystems). Cells were seeded at a density of 10,000 cells/cm^2 on Falcon polystyrene flasks and grown in monolayer culture at 37° C., 5% CO2, low oxygen. After reaching 60-70% confluence, cells were passed by washing the monolayer with PBS and incubating with TrypLE (Invitrogen) for 3-5 minutes to allow detachment and single cell dispersal.
Screening was conducted using test compounds from a proprietary library of small molecules selected for their ability to inhibit GSK-3B enzyme activity. Compounds from this library were made available as 1 mM stocks, in a 96-well plate format in 50 mM HEPES, 30% DMSO. For assay, cells expressing pluripotency markers were washed, counted, and plated in normal culture medium at a seeding density of 20,000 cells per well in 96-well clear-bottom, dark-well plates (Costar). This seeding density was previously determined to yield optimal monolayer formation in overnight culture. On the following day, culture medium was removed, cell monolayers were rinsed three times with PBS, and test compounds were added to the wells in 80 μl aliquots, each diluted into assay medium at a final assay concentration of 10 μM. On day 2 of the assay, medium was removed from each well and replaced with a fresh aliquot of test compounds diluted into assay medium. Assay medium on days 1 and 2 of culture consisted of DMEM:F12 supplemented with 0.5% FCS and 100 ng/ml Activin A. On days 3 and 4 of culture, medium was removed from each well and replaced with DMEM:F12 supplemented with 2% FCS and 100 ng/ml Activin A (no test compound). On day 4 of assay, 15 μl of MTS (Promega) was added to each well and plates were incubated at 37° C. for 1.5 to 4 hours prior to reading optical density at 490 nm on a SpectraMax (Molecular Devices) instrument. Statistical measures consisting of mean, standard deviation, and coefficient of variation were calculated for each duplicate set. Toxicity was calculated for each test well relative to a positive control (wells treated with Activin A and Wnt3a on days 1 and 2 of culture).
A larger proportion of the compounds have minimal or no measurable toxicity in this cell-based assay.
A small panel of select compounds was repeat tested over a narrow dose titration range, again using cells expressing pluripotency markers in a similar assay as described above.

[2] = system: human embryonic stem cells (H9 or H1 lines); assay: Plate reader (MTS) proliferation assay; conditions: for Average (of Raw Data): plate reader raw signal, mean of replicate wells; for Average (of Raw Data) / % Control: proliferation of human embryonic stem cells; for % Control: AA/Wnt3a = 100.0, no cells = 0.0; for Average: average of replicate raw data; for Raw Data: replicate wells, plate reader proliferation screen of GSK-3B inhibitors
In short: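 H9 or H1 cells on Matrigel, washed, then given DMEM:F12 with 0.5% FCS, 100 ng/ml activin A and 10 μM compound (days 1–2), then 2% FCS plus activin A (days 3–4). MTS added day 4, OD490 read after 1.5–4 h at 37 °C; triplicates as percent of activin A/Wnt3a control.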

[3] = system: Sox17 expression in human embryonic stem cells (H9 line); assay: High content screening assay: Sox17 protein expression (differentiation)
Description: (§1) Maintenance of human embryonic stem cells (H9 line) was conducted as described in Example 1. Colonies of cells were maintained in an undifferentiated, pluripotent state with passage on average every four days. Passage was performed by exposing cell cultures to a solution of collagenase (1 mg/ml; Sigma-Aldrich) for 10 to 30 minutes at 37° C. followed by gentle scraping with a pipette tip to recover cell clusters. Clusters were allowed to sediment by gravity, followed by washing to remove residual collagenase. Cell clusters were split at a 1:3 ratio for routine maintenance culture or a 1:1 ratio for immediate assay. The human embryonic stem cell lines used were maintained at passage numbers less than passage 50 and routinely evaluated for normal karyotypic phenotype and absence of mycoplasma contamination.
(§2) Cell clusters used in the assay were evenly resuspended in normal culture medium and plated onto MATRIGEL-coated 96-well Packard VIEWPLATES (PerkinElmer) in volumes of […]. MEF conditioned medium supplemented with 8 ng/ml bFGF was used for initial plating and recovery. Daily feeding was conducted by aspirating spent culture medium from each well and replacing with an equal volume of fresh medium. Plates were maintained at 37° C., 5% CO2 in a humidified box throughout the duration of assay.
(§3) Screening was conducted using test compounds from a proprietary library of small molecules selected for their ability to inhibit GSK-3B enzyme activity. Compounds from this library were made available as 1 mM stocks, in a 96-well plate format in 50 mM HEPES, 30% DMSO. Screening compounds were tested in triplicate or duplicate sets. Primary screening assays were initiated by aspirating culture medium from each well followed by three washes in PBS to remove residual growth factors and serum. Test volumes of 80 to 100 μl per well were added back containing DMEM:F12 base medium (Invitrogen) supplemented with 0.5% FCS (HyClone) and 100 ng/ml activin A (R&D Biosystems) plus 10 μM test compound. Positive control wells contained the same base medium, substituting 10-20 ng/ml Wnt3a (R&D Biosystems) for the test compound. Negative control wells contained base medium with 0.5% FCS and activin A alone (AA only) or alternatively, 0.5% FCS without activin A or Wnt3a (no treatment). Wells were aspirated and fed again with identical solutions on day 2 of assay. On days 3 and 4, all assay wells were aspirated and converted to DMEM:F12 supplemented with 2% FCS and 100 ng/ml activin A (without test compound or Wnt3a); parallel negative control wells were maintained in DMEM:F12 base medium with 2% FCS and activin A (AA only) or alternatively, 2% FCS without activin A (no treatment).
(§4) At the end of culture, cells in 96-well plates were fixed with 4% paraformaldehyde at room temperature for 20 minutes, washed three times with PBS, and then permeabilized with 0.5% Triton X-100 for 20 minutes at room temperature. Alternatively, cells were fixed with ice cold 70% ethanol overnight at −20° C., washed three times with PBS, and then permeabilized with Triton X-100 for 5 minutes at 4° C. After fixing and permeabilizing, cells were washed again three times with PBS and then blocked with 4% chicken serum (Invitrogen) in PBS for 30 minutes at room temperature. Primary antibodies (goat anti-human Sox17 and goat anti-human HNF-3beta; R&D Systems) were diluted 1:100 in 4% chicken serum and added to cells for one hour at room temperature. Alexa Fluor 488 conjugated secondary antibody (chicken anti-goat IgG; Molecular Probes) was diluted 1:200 in PBS and added after washing the cells three times with PBS. To counterstain nuclei, 5 mM Draq5 (Alexis Biochemicals) was added for five minutes at room temperature. Cells were washed once with PBS and left in […] PBS for imaging.
(§5) Cells were imaged using an IN Cell Analyzer 1000 (GE Healthcare) utilizing the 51008bs dichroic for cells stained with Draq5 and Alexa Fluor 488. […]

[4] = system: human embryonic stem cells (H9 line); assay: High content screening assay: cell number (proliferative response)
Description: as §1, §2, §3, §4, §5

[5] = system: HNF-3beta expression in human embryonic stem cells (H9 line); assay: High content screening assay: HNF-3beta protein expression (differentiation)
Description: as §1, §2, §3, §4, §5

[6] = MTS viability assay raw reading, replicate 1
[7] = MTS viability assay raw reading, replicate 2
[8] = average of duplicate MTS raw readings
[9] = total intensity normalised to Wnt 3a/AA control

Row | SMILES | Raw data (duplicate), first replicate [1, 6] | Raw data (duplicate), second replicate [1, 7] | Average [1, 8] | % Control [1] | Average (of Raw Data) [2] | % Control [2] | Average [2] | Raw Data [2] | Average ([1]; MTS viability readout, average of duplicate raw data) | Raw data (duplicate), first replicate ([1]; MTS viability readout, raw value of replicate 1) | Raw data (duplicate), second replicate ([1]; MTS viability readout, raw value of replicate 2) | SOX-17 Expression Total Intensity ([3]; total intensity) | SOX-17 Expression Fold over Wnt 3a/AA control [3, 9] | Proliferative Response Fold over Wnt 3a/AA control ([4]; 10 μM test compound with 100 ng/ml activin A on days 1-2, H9, total cell number by IN Cell Analyzer, strong and moderate hits) | Proliferative Response Total cells ([4]; cell number in the wells analysed for HNF-3b expression) | Proliferative Response Fold over Wnt 3a/AA control ([4]; cell number in the wells analysed for HNF-3b expression, normalised to Wnt 3a/AA control) | Proliferative Response Total cells ([4]; cell number in the wells analysed for SOX-17 expression) | Proliferative Response Fold over Wnt 3a/AA control ([4]; cell number in the wells analysed for SOX-17 expression, normalised to Wnt 3a/AA control) | HNF-3b Expression Total Intensity ([5]; total intensity) | HNF-3b Expression Fold over Wnt 3a/AA control [5, 9]
1 | O=C1NC(=O)C(c2nn(CCCO)c3ccccc23)=C1c1cn(-c2ccc3ccccc3c2)c2ncccc12 [Compound 19, 3-[1-(3-Hydroxypropyl)-1H-indazol-3-yl]-4-(1-naphthalen-2-yl-1H-pyrrolo[2,3-b]pyridin-3-yl)-1H-pyrrole-2,5-dione] | 0.695 and 0.694 | 0.702 and 0.603 | 0.698 and 0.649 | 77.8% | 0.3877 and 0.3780 | 31.2% and 30.1% | – | – | – | – | – | – | – | – | – | – | – | – | – | –
2 | COc1ncc(C2=C(c3cn(CCCC#N)c4ncccc34)C(=O)NC2=O)c(OC)n1 [Compound 74, 4-(3-{4-[2,4-Bis(methyloxy)pyrimidin-5-yl]-2,5-dioxo-2,5-dihydro-1H-pyrrol-3-yl}-1H-pyrrolo[2,3-b]pyridin-1-yl)butanenitrile] | 0.715 and 0.592 | 0.596 and 0.572 | 0.655 and 0.582 | 70.0% | – | – | 1.0228 and 0.1280 | 1.1486 and 0.8970 and 0.1358 and 0.1201 | – | – | – | – | – | – | – | – | – | – | – | –
3 | O=C1NC(=O)C(c2cn(CCCO)c3ncccc23)=C1c1cc2ccccc2o1 [Compound 241, 3-(1-Benzofuran-2-yl)-4-[1-(3-hydroxypropyl)-1H-pyrrolo[2,3-b]pyridin-3-yl]-1H-pyrrole-2,5-dione] | – | – | – | 78.0% | 0.1621 and 0.1716 | 6.8% and 8.3% | – | – | 0.697 and 0.648 | 0.695 and 0.665 | 0.700 and 0.631 | – | – | – | – | – | – | – | – | –
4 | O=C1NC(=O)C(c2cn(-c3cccnc3)c3ccccc23)=C1c1n[nH]c2ccccc12 [Compound 14] | 0.797 and 0.804 | 0.793 and 0.802 | 0.795 and 0.803 | 96.2% | – | – | – | – | – | – | – | 377885000 and 365075000 | 1.0080 fold and 0.9739 fold | 0.9249 Fold over Wnt 3a/AA control | 4504 and 5300 | 0.892 fold and 1.05 fold | 6916.5 and 7370.5 | 0.8679 fold and 0.9249 fold | 365090000 and 399265000 | 0.7945 fold and 0.8688 fold
5 | COc1ncc(C2=C(c3cn(CCCO)c4ncccc34)C(=O)NC2=O)c(OC)n1 [Compound 48, 3-[2,4-Bis(methyloxy)pyrimidin-5-yl]-4-[1-(3-hydroxypropyl)-1H-pyrrolo[2,3-b]pyridin-3-yl]-1H-pyrrole-2,5-dione] | 0.952 and 0.154 | 0.966 and 0.165 | – | – | – | – | 1.1446 and 0.1102 | 1.2256 and 1.0636 and 0.1134 and 0.1070 | – | – | – | – | – | – | – | – | – | – | – | –
